# Screen size: about 370,000 compounds; about 1,100 (0.3%) were called active. The shares of active, inactive and inconclusive entries below differ from those in the screen. The call rests on the fitted dose curve; in most records, active means well fitted activation curve with a large enough effect; inconclusive means small, poorly fitted or top-dose-only effect; inactive means flat fitted curve, though single readings scatter. A potency beside an inconclusive call is a rough fit, not a confirmed value.
# Target: Relaxin receptor 1 (Homo sapiens) (UniProt Q9HBX9)
# Experiment: qHTS Assay for Agonists of the Relaxin Receptor RXFP1; further: nearly all actives have a fitted effect of over 60% in size
# Details: HEK293T-RXFP1 cAMP TR-FRET, 30 min; series mostly up to 57.5 µM
# Procedure, shortened: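 cAMP rise read by TR-FRET after 30 min, 37C compound exposure (up to 58 uM) in RXFP1-transfected HEK293 cells with Ro 20174 present. EC50 from Hill-equation fits, with 29 nM porcine relaxin as 100% and buffer as basal.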
# Potency means the concentration at half of the fitted maximal effect; tags describe the fitted curve by direction and shape.
# Sequence of UniProt Q9HBX9 (Q9HBX9 whole entry, looked up): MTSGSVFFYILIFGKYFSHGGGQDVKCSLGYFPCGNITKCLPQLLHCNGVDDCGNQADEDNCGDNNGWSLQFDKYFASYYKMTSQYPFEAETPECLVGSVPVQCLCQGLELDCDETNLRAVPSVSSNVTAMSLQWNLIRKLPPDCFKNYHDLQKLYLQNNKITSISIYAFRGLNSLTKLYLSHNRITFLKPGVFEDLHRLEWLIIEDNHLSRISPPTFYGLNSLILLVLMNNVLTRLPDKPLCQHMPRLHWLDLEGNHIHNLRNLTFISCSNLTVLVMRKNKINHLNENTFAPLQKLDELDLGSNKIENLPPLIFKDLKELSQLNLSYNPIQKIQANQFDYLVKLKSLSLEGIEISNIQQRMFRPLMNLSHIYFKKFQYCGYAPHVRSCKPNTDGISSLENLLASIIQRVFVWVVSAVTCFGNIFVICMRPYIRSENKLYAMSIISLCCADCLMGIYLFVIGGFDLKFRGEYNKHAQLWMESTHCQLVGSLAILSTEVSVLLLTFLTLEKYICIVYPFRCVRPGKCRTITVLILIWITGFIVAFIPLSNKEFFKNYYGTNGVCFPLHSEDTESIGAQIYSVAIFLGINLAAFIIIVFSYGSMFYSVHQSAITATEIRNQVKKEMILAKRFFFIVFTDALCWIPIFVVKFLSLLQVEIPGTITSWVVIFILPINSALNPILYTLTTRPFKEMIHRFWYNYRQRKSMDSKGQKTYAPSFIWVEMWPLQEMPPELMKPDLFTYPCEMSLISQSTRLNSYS
row,SMILES,Potency
1,Cc1ccc(CSc2ccc(-c3cccs3)nn2)cc1,"inconclusive: 22.4 µM [activator, partial curve]"
2,Cc1cc(-c2c(C)[nH]n(-c3ccc(Cl)cc3)c2=O)n[nH]1,inactive
3,S=c1nc[nH]c2c1[nH]c1ccccc12,active: 7.08 µM
4,CCN(Cc1ccccc1)C(=O)Cn1c(=O)n(-c2ccc(F)c(Cl)c2)c(=O)c2sc3ccccc3c21,"inconclusive: 28.2 µM [activator, single point]"
5,CC(=O)Nc1ccc(NC(=O)CSc2ccc3nnc(-c4ccccn4)n3n2)cc1,active: 8.91 µM
6,Cc1c(CCC(C)C)c(=O)n2c([nH]c3ccccc32)c1C#N,inactive
7,COc1ccc(C2C(C(=O)c3ccco3)=C(O)C(=O)N2c2nnc(C)s2)cc1 (stereo not drawn),"inconclusive: 22.4 µM [activator, partial curve]"
8,COc1ccc2cc(OCC(=O)NNC(=O)Nc3ccc(F)cc3)ccc2c1,"inconclusive: 28.2 µM [activator, single point]"
9,CCCCN(C)CCCNC(=O)Cn1ncc2c3ccccc3n(Cc3ccccc3F)c2c1=O,"inconclusive: 39.8 µM [activator, single point]"
10,Cc1cc(C)c2oc(-c3cccc(N)c3)nc2c1,inactive
11,O=C(Nc1ccnn1C1CCN(C/C=C/c2ccccc2)CC1)c1ccccc1Cl,inactive
12,Cc1ccc2nc(-c3c[nH]c4ccccc34)c(Nc3ccccc3C)n2c1,"inconclusive: 35.5 µM [activator, single point]"
13,Cc1ccc(-n2c(SCC(=O)NCc3ccccc3)nc3n[nH]c(C)c3c2=N)cc1Cl,"inconclusive: 39.8 µM [activator, single point]"
14,Cc1nnc(N2C(=O)C(O)=C(C(=O)c3ccco3)C2c2cccc3ccccc23)s1 (stereo not drawn),"inconclusive: 17.8 µM [activator, partial curve]"
15,Cc1cccc(C(=O)NC(=O)Nc2ccc(-c3cc(C(F)(F)F)nn3-c3ccccc3)cc2)c1,inactive
16,COc1ccc(C(=O)Nc2ccc(OCc3cc(=O)n4ccsc4n3)cc2)cc1OC,"inconclusive: 35.5 µM [activator, single point]"
17,CCCCC1(Cc2ccc(OC)c([N+](=O)[O-])c2)C(=O)N(c2ccccc2)N(c2ccccc2)C1=O,inactive
18,COc1ccc2cc(C#N)c(SCC(=O)NNC(=O)Cc3ccccc3)nc2c1,"inconclusive: 39.8 µM [activator, single point]"
19,N#Cc1c(C(F)(F)F)cc(-c2cccs2)nc1SCC(=O)Nc1ccc(F)cc1,"inconclusive: 25.1 µM [activator, single point]"
20,CCCCn1c(NC(=O)c2ccc(Br)o2)c(S(=O)(=O)c2ccccc2)c2nc3ccccc3nc21,"inconclusive: 22.4 µM [activator, partial curve]"
21,Cn1cc(CCCC(=O)NCc2ccccc2Cl)c2ccccc21,"inconclusive: 25.1 µM [activator, single point]"
22,O=C(Nc1nccs1)c1ccc2c(c1)OCO2,"inconclusive: 39.8 µM [activator, single point]"
23,O=C(Nc1cc(S(=O)(=O)N2CCOCC2)ccc1N1CCOCC1)c1cn2ccccc2n1,"inconclusive: 15.8 µM [activator, partial curve]"

row,SMILES,Potency
1,Cc1cc(C)c2c(n1)nn1c(C)c(CCC(=O)NCc3ccc(Cl)cc3)c(C)nc21,"inconclusive: 39.8 µM [activator, single point]"
2,COc1ccc(CCNC(=O)CCn2c(=O)c3cccn3c3cccnc32)c(OC)c1OC,"inconclusive: 39.8 µM [activator, single point]"
3,COc1ccccc1NC(=O)c1cc2c([nH]c1=O)CC(C)(C)CC2=O,"inconclusive: 31.6 µM [activator, single point]"
4,O=C(OC1CCOC1=O)c1cc(-c2cccs2)nc2ccccc12 (stereo not drawn),"inconclusive: 31.6 µM [activator, partial curve]"
5,Cc1ccc(CN2C3CCCC2CC(NC(=O)c2ccc(F)cc2)C3)cc1 (stereo not drawn),inactive
6,O=C(Nc1nnc(C2CC2)s1)c1ccc(Cl)c(S(=O)(=O)N2CCc3ccccc3C2)c1,inactive
7,COc1ccc(C(=O)COC(=O)c2ccc(-n3cnnn3)cc2)c(OC)c1,"inconclusive: 39.8 µM [activator, single point]"
8,Cc1cc(C)c(C(=O)CSc2n[nH]c(=O)n2C2CC2)cc1C,"inconclusive: 4.47 µM [activator, full curve]"
9,CC(=O)c1ccc(N2CCN(S(=O)(=O)c3cc4c(cc3C)NC(=O)CO4)CC2)cc1,"inconclusive: 35.5 µM [activator, single point]"
10,COc1ccccc1NC(=O)Nc1nc(CC(=O)N2CCN(c3ccc(F)cc3)CC2)cs1,inactive
11,O=C(CSc1ncnc2c1oc1ccccc12)NCc1ccco1,"inconclusive: 15.8 µM [activator, partial curve]"
12,COc1ccc(CNC(=O)c2cc3cccc(OC)c3oc2=O)cc1,"inconclusive: 39.8 µM [activator, single point]"
13,NCCNC(=O)Cc1ccc(NC(=O)Cc2ccc(Nc3ncnc4c3ncn4[C@@H]3O[C@H](CO)[C@@H](O)[C@H]3O)cc2)cc1,active: 1.41 µM
14,O=C(O)c1cc(-c2ccc3c(c2)OCO3)nc2ccc(Br)cc12,active: 15.8 µM
15,CC(C)c1ccc(NC(=O)CSC2=Nc3ccccc3C3=NC(CCC(=O)NCc4ccco4)C(=O)N23)cc1 (stereo not drawn),"inconclusive: 31.6 µM [activator, single point]"
16,COc1ccc(-c2c(C#N)c(C)nc3c2C(=O)c2ccccc2-3)cc1,"inconclusive: 39.8 µM [activator, single point]"
17,O=S(=O)(c1ccc2nc(N3CCN(c4ccc(F)cc4)CC3)ccc2c1)N1CCCCC1,"inconclusive: 22.4 µM [activator, partial curve]"
18,COc1ccc(N(CC(=O)N/N=C/c2ccc(OC)cc2OC)S(=O)(=O)c2ccccc2)cc1,inactive
19,CCOC(=O)CSc1nc2cc(OC)c(OC)cc2c2nc(-c3ccccc3)nn12,"inconclusive: 39.8 µM [activator, single point]"
20,FC(F)(F)c1cnc(-c2cnc(-c3cccnc3)nc2)c(Cl)c1,"inconclusive: 39.8 µM [activator, single point]"
21,Cc1cccc(CCn2c(=O)c3ccccc3n(CC(=O)Nc3ccccc3F)c2=O)c1,inactive
22,COc1ccc(-c2nnc(SCC(=O)N3CCc4ccccc43)o2)cc1OC,"inconclusive: 39.8 µM [activator, single point]"
23,Cn1c(N)c(C(=O)COC(=O)COc2ccccc2C#N)c(=O)n(C)c1=O,"inconclusive: 22.4 µM [activator, partial curve]"

row,SMILES,Potency
1,COc1ccc(OC)c(NC(=O)c2nnn(CCc3ccccc3)c2N)c1,"inconclusive: 39.8 µM [activator, single point]"
2,N#CCc1nc2c3c4c(sc3ncn2n1)CCCC4,"inconclusive: 39.8 µM [activator, single point]"
3,COc1ccc(CNC(=O)CSc2nnc(NC(=O)C3CC3)s2)cc1,"inconclusive: 35.5 µM [activator, single point]"
4,Cc1c(NC(=O)c2ncn[nH]2)cccc1-c1nc2ccccc2s1,"inconclusive: 39.8 µM [activator, single point]"
5,O=C(NCCCn1ccnc1)c1cc(-c2cccnc2)nc2ccc(Br)cc12,"inconclusive: 20 µM [activator, partial curve]"
6,CCn1c(C(=O)NCc2ccccc2Br)cc2oc3ccccc3c21,inactive
7,COC(=O)c1ccc(C(=O)OC)c(NC(=O)c2cc3nc(-c4ccc(C)cc4)cc(C(F)(F)F)n3n2)c1,"inconclusive: 35.5 µM [activator, single point]"
8,Cc1ccc(-c2nc(N)sc2CC(=O)OCC(=O)NCCC(C)C)cc1,inactive
9,CCC(Sc1nnc2c(n1)[nH]c1ccccc12)C(=O)Nc1ccccc1OC (stereo not drawn),inactive
10,Cc1c2c(n3c(nc4ccccc43)c1C#N)N(CCN(C)C)CC2,"inconclusive: 14.1 µM [activator, partial curve]"
11,O=C(NCC1CCOCC1)c1ccc2nc(Cc3cccc(Cl)c3)oc2c1,"inconclusive: 28.2 µM [activator, partial curve]"
12,CCOc1nc(-c2ccccc2)ccc1-c1noc(-c2ccc(C)cc2)n1,"inconclusive: 39.8 µM [activator, single point]"
13,C/C(=N\NC(=S)NCc1ccccc1)c1cccc(Br)c1,inactive
14,O=C(NCCc1ccccc1)c1ccc(-c2ccccc2C(F)(F)F)o1,inactive
15,O=C(Cn1cc(SCc2ccc(F)cc2)c2ccccc21)N1CCCCC1,inactive
16,Cc1cccc(N2C(=O)C(O)=C(C(=O)c3cccs3)C2c2ccc(F)cc2)n1 (stereo not drawn),"inconclusive: 17.8 µM [activator, partial curve]"
17,COc1ccccc1NC(=O)c1sc(-c2ccc(Cl)cc2)cc1N,"inconclusive: 11.2 µM [activator, partial curve]"
18,Cc1cc(C)c2oc(C(=O)Nc3ccc(S(=O)(=O)Nc4ncccn4)cc3)cc(=O)c2c1,inactive
19,O=C(O)CCNc1nc(-c2ccccc2)c2cc(Br)ccc2n1,"inconclusive: 25.1 µM [activator, partial curve]"
20,Cc1nnc(SCCN2CCOCC2)c2nn(-c3ccccc3F)c(C)c12,"inconclusive: 28.2 µM [activator, partial curve]"
21,Cc1ccc(CN2CCN(Cc3cccc(-n4cccn4)c3)CC2CCO)cc1 (stereo not drawn),inactive
22,O=C(COC(=O)c1cc(-c2ccccc2Cl)nc2ccccc12)Nc1ncc(C(F)(F)F)cc1Cl,"inconclusive: 15.8 µM [activator, partial curve]"

# — PubChem BioAssay AID2676 (National Center for Advancing Translational Sciences (NCATS), 2010)
